The source of these data is paper PMC4336329 (PLoS ONE, 2015).

The structures appear in SMILES notation. In all, about 310,000 compounds went through this assay and about 14,000 (4.5%) showed an effect of 50% or more. The effect is printed as a negative number. The list shows a part of the results.
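Note: peak tail current of the secondary pulse compared with the same well before compound.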

human ether-à-go-go-related gene (hERG) potassium channel, sequence (Q12809 whole entry, looked up): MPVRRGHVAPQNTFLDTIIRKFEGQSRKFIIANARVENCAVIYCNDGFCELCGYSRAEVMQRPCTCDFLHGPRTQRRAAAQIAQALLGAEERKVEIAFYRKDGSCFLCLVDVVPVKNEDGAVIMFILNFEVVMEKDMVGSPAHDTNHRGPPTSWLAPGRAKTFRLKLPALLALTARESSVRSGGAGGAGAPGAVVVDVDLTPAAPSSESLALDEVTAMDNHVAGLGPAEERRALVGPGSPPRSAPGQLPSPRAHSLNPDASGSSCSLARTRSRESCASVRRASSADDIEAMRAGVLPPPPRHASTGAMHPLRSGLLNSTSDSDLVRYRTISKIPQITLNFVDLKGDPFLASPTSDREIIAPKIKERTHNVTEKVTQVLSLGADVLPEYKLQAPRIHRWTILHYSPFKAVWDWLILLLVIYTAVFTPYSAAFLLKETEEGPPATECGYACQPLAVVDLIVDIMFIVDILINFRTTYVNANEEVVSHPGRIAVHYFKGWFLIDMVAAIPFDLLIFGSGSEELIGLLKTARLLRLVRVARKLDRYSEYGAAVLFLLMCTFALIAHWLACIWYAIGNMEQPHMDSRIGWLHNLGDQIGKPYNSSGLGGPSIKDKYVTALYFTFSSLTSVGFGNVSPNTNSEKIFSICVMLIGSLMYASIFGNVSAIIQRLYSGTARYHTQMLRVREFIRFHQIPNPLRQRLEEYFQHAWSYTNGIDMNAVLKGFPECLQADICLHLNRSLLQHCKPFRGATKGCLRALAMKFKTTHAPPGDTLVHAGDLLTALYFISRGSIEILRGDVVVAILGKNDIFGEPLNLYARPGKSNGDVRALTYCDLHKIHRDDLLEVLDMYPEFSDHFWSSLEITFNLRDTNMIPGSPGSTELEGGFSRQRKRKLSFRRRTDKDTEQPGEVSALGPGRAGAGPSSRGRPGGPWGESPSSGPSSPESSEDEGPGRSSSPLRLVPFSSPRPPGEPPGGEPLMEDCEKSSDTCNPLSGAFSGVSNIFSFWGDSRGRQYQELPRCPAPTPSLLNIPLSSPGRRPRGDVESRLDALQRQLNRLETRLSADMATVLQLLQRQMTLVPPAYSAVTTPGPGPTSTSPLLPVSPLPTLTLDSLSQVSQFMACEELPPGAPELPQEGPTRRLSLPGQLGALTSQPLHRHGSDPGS

This assay addresses human ether-à-go-go-related gene (hERG) potassium channel (human, UniProt Q12809). Briefly: primary screen, population patch clamp on CHO cells stably expressing hERG.
`Cc1ccc(C(=O)c2nccn2C)cc1C`: the “hERG current change (%, negative = inhibition) at 10uM” value is reported as 23.6%.

As to `O=C(Nc1cc(S(=O)(=O)N2CCOCC2)ccc1Oc1ccc(F)cc1)C1=COCCO1`, the “hERG current change (%, negative = inhibition) at 10uM” value is -69.8%.

For `O=C(CCCCCn1c(=O)[nH]c2ccccc2c1=O)N1CCN(Cc2ccc3c(c2)OCO3)CC1`, the “hERG current change (%, negative = inhibition) at 10uM” value is -71.7%. With `COc1ccc(NC(=O)c2ccc3c(c2)OCCO3)cc1OC` the figure was 9.47%. With `COc1ccc(Br)cc1/C=C/C(=O)c1ccc(NC(C)=O)cc1` the figure was 6.61%; with `COc1c(C)cc(C(=O)C2CCCN(C(=O)c3ccc4[nH]ccc4c3)C2)cc1C` (centres unmarked), 22.7%; with `CCOc1ccc(N2C(=O)C3C4C=CC([C@H]5CC45)[C@@H]3C2=O)cc1` (some centres unmarked), 12.6%. With `Cc1c([N+](=O)[O-])c(C(=O)Sc2ccc(Br)cc2)nn1C`, the “hERG current change (%, negative = inhibition) at 10uM” value turned out to be 17.1%.

Turning to `CCN(CC)C(=O)c1[nH]cnc1C(=O)N[C@H](C)c1ccccc1`, the “hERG current change (%, negative = inhibition) at 10uM” value was found to be 14.9%. With `CC1CN(C2CCN(S(=O)(=O)c3ccc(F)cc3)CC2)CC(C)O1.O=C(O)C(=O)O` (centres unmarked), the “hERG current change (%, negative = inhibition) at 10uM” value is listed as -5.34%.

On to `C=CCN(CC=C)S(=O)(=O)c1ccc(NC(=S)NC(=O)C2CC2)cc1`, for which the “hERG current change (%, negative = inhibition) at 10uM” value is recorded as -3.58%. With `CCN(CC)CC(=O)NC12CC3CC(CC(C3)C1)C2.Cl` the figure was 3.52%.

As to `FC(F)(F)c1cccc(-c2nc(COc3ccc(Cl)cc3Cl)no2)c1`, the “hERG current change (%, negative = inhibition) at 10uM” value is recorded as 15.2%. With `CCOC(=O)CNC(=O)CSc1nc2ncc(Br)cc2[nH]1` the figure was 15.2%. With `CCOc1ccc(-n2nc3ccc(NC(=O)c4ccc5c(c4)OCCO5)cc3n2)cc1`, the “hERG current change (%, negative = inhibition) at 10uM” value is recorded as 2.62%. Take `COc1ccc(C2C(C(=O)N3CCC(C)CC3)c3ccccc3C(=O)N2C)cc1` (centres unmarked): the “hERG current change (%, negative = inhibition) at 10uM” value was -2.03%. With `COc1ccc(CCC(=O)N2CCCC(Nc3ccccc3)C2)cc1OC` (centres unmarked) the figure was -28.2%; with `Cc1cc(C)nc(NS(=O)(=O)c2ccc(NC(=O)c3ccc(S(=O)(=O)N4CC(C)OC(C)C4)cc3)cc2)n1` (centres unmarked), 7.35%; with `CN1CCN(c2nc3c(c(=O)n(C)c(=O)n3C)n2Cc2ccccc2Cl)CC1`, -6.5%. As to `COc1ccc(Cl)cc1C(=O)OCC(=O)Nc1cccnc1Cl`, the “hERG current change (%, negative = inhibition) at 10uM” value worked out at 15.8%. With `COc1cccc(-c2noc(Cn3nc(C)c([N+](=O)[O-])c3C)n2)c1` the figure was -6.89%. Turning to `CCN(C(=O)c1cc2c(=O)[nH]c3ccc(C)cc3c2s1)c1ccc(F)cc1`, the “hERG current change (%, negative = inhibition) at 10uM” value stood at 1.36%. Consider `COc1ccc(-c2cc(C(=O)N(C)Cc3ccccc3)no2)cc1OC`, for which the “hERG current change (%, negative = inhibition) at 10uM” value is reported as -18.9%.

Take `C/C(=N\OC(=O)c1c(-c2ccccc2Cl)noc1C)c1ccncc1`: the “hERG current change (%, negative = inhibition) at 10uM” value is on record as -58.6%. With `O=c1[nH]n2c(=O)c3c([nH]c2c1N=Nc1cccc(C(F)(F)F)c1)CCCC3` the figure was 0.417%. With `Cn1cccc1C(=O)Nc1nc(-c2ccccn2)cs1` the figure was -13.8%. As to `C/C(=N/NC(=O)c1ccncc1)c1ccccc1`, the “hERG current change (%, negative = inhibition) at 10uM” value came out at 31.1%. With `CN(C)/C(Cn1cncn1)=C1/N=C(c2c(F)cccc2F)OC1=O` the figure was 4.34%; with `O=C(Nc1ccc(-n2cccn2)cc1)C1CCN(Cc2ccsc2)CC1`, -81.1%. With `CC(C)(C)c1ccccc1OCC(O)CN1CCN(c2ccccn2)CC1.Cl` (centres unmarked), the “hERG current change (%, negative = inhibition) at 10uM” value is on record as -48.8%. With `C/C(=N\NC(=O)COc1ccccc1[N+](=O)[O-])c1cccs1` the figure was 10.3%.

Turning to `CCC(C)c1ccc(O)c(NC(=S)NC(=O)c2cccnc2)c1` (centres unmarked), the “hERG current change (%, negative = inhibition) at 10uM” value is reported as 49.6%. Turning to `Cc1cccc(NS(=O)(=O)c2ccc(OCC(=O)N3CCCC3)cc2)c1`, the “hERG current change (%, negative = inhibition) at 10uM” value was -19.1%. For `C[C@@H](C(=O)NCc1ccccn1)[C@@H]1C[C@@]1(C)[C@@H](NC(=O)OCc1ccccc1)c1ccccc1`, the “hERG current change (%, negative = inhibition) at 10uM” value is -32.6%. With `Cc1cc(C)c2c(n1)nn1c(NCCOCCO)cc(C)nc21`, the “hERG current change (%, negative = inhibition) at 10uM” value is -9.69%. With `Cc1ccc(S(=O)(=O)C2(C(=O)Nc3ccc4c(c3)OCO4)CC2)cc1` the figure was -20.9%.

On to `Cn1nc(-c2ccccc2)c(C(=O)Nc2ccc(Cl)cc2)c1Cl`, for which the “hERG current change (%, negative = inhibition) at 10uM” value is reported as -12.7%.

Take `C=CCNC(=O)C1COc2ccccc2O1` (centres unmarked): the “hERG current change (%, negative = inhibition) at 10uM” value is given as -9.78%. With `O=C(c1ccc([N+](=O)[O-])cc1)c1cc2ccc(O)cc2oc1=O` the figure was 6.81%; with `COc1ccc(CNC(=S)Nc2ccc3nc(N4CCOCC4)cc(C)c3c2)cc1`, -24%. With `C=CCNc1nc2c(c(=O)n(C)c(=O)n2C)n1Cc1ccc(F)cc1` the figure was -11%; with `CCOc1ccc(S(=O)(=O)NCc2ccc(Cl)cc2)c2cccnc12`, -24.9%; with `Cc1occc1-c1nc(-c2ccncc2)no1`, -10.4%. For the compound `O=C(CSc1nnnn1-c1ccc(Cl)cc1)Nc1cccnc1Cl`, the “hERG current change (%, negative = inhibition) at 10uM” value is listed as -19.2%. With `COc1cc2ncnc(NCCCN3CCOCC3)c2cc1OC` the figure was 20.8%; with `C[NH+](C)CCOC(=O)C1(c2ccccc2)CCOCC1.[Cl-]`, 14.1%; with `CC(NC(=O)OC1CCCCC1)N1C(=O)C2C3C=CC(C3)C2C1=O` (centres unmarked), 7.03%. With `COc1ccc(-c2ccc(CCC(=O)O)n2CC(=O)Nc2cccc(OC)c2)cc1` the figure was 13.7%.

`N#Cc1c(N)c(C#N)c(-c2ccc(O)cc2)c2c1CCCC2`: the “hERG current change (%, negative = inhibition) at 10uM” value was -3.3%. As to `CSc1ncccc1C(=O)Nc1nc(C(C)(C)C)cs1`, the “hERG current change (%, negative = inhibition) at 10uM” value is given as -23.5%. With `CCOC(=O)c1nn(-c2cccc(Cl)c2)c2nc(Nc3ccccc3)cc(=O)n12` the figure was 9.17%; with `O=C(c1ccc2c(c1)ncn2-c1ccc(F)cc1F)N1CCC2(CC1)OCCO2`, -6.35%; with `Cc1ccccc1N(CC(=O)N/N=C/c1ccccc1Cl)C(=O)c1ccccc1`, 7.46%. With `O=C(c1cccc(Oc2ccccc2)c1)N1CCOCC1` the figure was 22.2%; with `Cc1ccc(-c2ccc(=O)n(CC(=O)N3CCN(c4cc(Cl)ccc4C)CC3)n2)cc1`, -8.51%; with `COc1ccc(N(C)C(=O)C2CCN(S(=O)(=O)c3cccc4nonc34)CC2)cc1`, 5.87%. With `O=C(Nc1ccccc1N1CCCC1)c1ccco1` the figure was 6.36%; with `O=C(CN1C(=O)CSC1=O)NC1CCCCC1`, 4.77%. For `COc1cccc(/C=N/Nc2ccnc(=O)[nH]2)c1O`, the “hERG current change (%, negative = inhibition) at 10uM” value was 5.1%. With `CN(C(=O)Cn1nnc(-c2cccc(C(F)(F)F)c2)n1)C1CCCCC1` the figure was 15.9%; with `COc1ccc(NC(=S)N(CCC(C)C)C2CCN(C(C)C)CC2)cc1`, -39.2%; with `O=C(c1cccc2nc3ccccc3nc12)N1CCOCC1`, 5.67%. With `Cc1ccc(S(=O)(=O)N2C3C=CC(C3)C2C(=O)O)cc1` (centres unmarked) the figure was 12%; with `COc1cccc(NC(=O)C2CCN(C(=O)NC3CCCCC3)CC2)c1`, 2.51%; with `COCCNC(=O)c1ccc(C(=O)NCCOC)s1`, 7.11%.

For `C/C=C/C=[N+](\[O-])C(C)/C(=N/O)c1ccc(F)cc1` (centres unmarked), the “hERG current change (%, negative = inhibition) at 10uM” value is reported as -22%. Turning to `O=C(O)CSc1nnc(-c2ccc3c(c2)OCO3)o1`, the “hERG current change (%, negative = inhibition) at 10uM” value is 3.29%. With `O=C(Nc1nccs1)C1CC(=O)N(c2ccc(Cl)cc2)C1` (centres unmarked) the figure was -12.8%; with `COC(=O)c1ccccc1NC(=O)C1CCCN(S(=O)(=O)c2ccc(F)cc2)C1` (centres unmarked), -28.1%; with `CCC1Sc2ccc(S(=O)(=O)CCC(=O)NC3CCCCCC3)cc2NC1=O` (centres unmarked), 16.1%.

With `CCCn1c(C(C)Nc2nc(-c3cccc(Br)c3)cs2)nc2ccccc21` (centres unmarked), the “hERG current change (%, negative = inhibition) at 10uM” value is -12.1%. With `CC(=O)CCc1ccc(OCCCCn2cncn2)cc1` the figure was -4.29%; with `COc1cccc(CC2(CO)CCCN(Cc3nc(-c4cccs4)oc3C)C2)c1` (centres unmarked), -64.5%. With `CSCCC(NC(=O)/C(=C/c1ccc(F)cc1)NC(C)=O)C(=O)O` (centres unmarked) the figure was 12.2%. For `CC(=O)Nc1ccc(C(=O)NC2CCSc3ccccc32)cc1` (centres unmarked), the “hERG current change (%, negative = inhibition) at 10uM” value is reported as 5.94%.

`CC1(C)CC(=O)c2cc(C(=O)Nn3cnnc3)c(=O)n(-c3ccccc3)c2C1`: the “hERG current change (%, negative = inhibition) at 10uM” value was 9.5%. Turning to `Oc1ccccc1CNc1ccc2c(c1)OCCO2`, the “hERG current change (%, negative = inhibition) at 10uM” value was determined as 8.27%. On to `O=C(N/N=C/c1cn(-c2ccccc2)nc1-c1cccs1)c1ccc(Cl)cc1`, for which the “hERG current change (%, negative = inhibition) at 10uM” value is on record as 14.5%. In the case of `O=C(Nc1nc2ccccc2s1)C1=NN(c2ccccc2)C(=O)CC1`, the “hERG current change (%, negative = inhibition) at 10uM” value is given as 6.62%. As for `C=CCn1c(SCc2cc(=O)n3ccsc3n2)nc2sc(C)c(C)c2c1=O`, the “hERG current change (%, negative = inhibition) at 10uM” value came to 4.9%. With `CC(=O)c1cccc(N(CC(=O)O)S(C)(=O)=O)c1` the figure was 5.02%. Consider `Cc1cccc2cc(C#N)c(SCCN3CCCCC3)nc12.Cl`, for which the “hERG current change (%, negative = inhibition) at 10uM” value is -35.3%. For the compound `Cc1ccc(NC(=O)c2noc3c2CCCCC3)cc1`, the “hERG current change (%, negative = inhibition) at 10uM” value is reported as -7.14%.

Consider `COC(=O)c1ccc(N(CC(=O)NC2CCCCC2)C(=O)CNC(=O)c2ccco2)cc1`, for which the “hERG current change (%, negative = inhibition) at 10uM” value amounted to 4.85%. With `CC1CCC(NC(=O)CSc2ccc(S(=O)(=O)N(C)C)cn2)CC1` (centres unmarked) the figure was 14.3%; with `CCCCOc1ccc(C(=O)NCC(=O)NCC(c2ccco2)N2CCCCC2)cc1` (centres unmarked), -21.4%. For the compound `CC1CCc2c(nc3nc[nH]n3c2=O)C1` (centres unmarked), the “hERG current change (%, negative = inhibition) at 10uM” value was found to be 6.32%. As for `Cc1ccc(NC(=O)CN(C)C(=O)Cc2ccccc2F)cc1`, the “hERG current change (%, negative = inhibition) at 10uM” value was determined as 9.13%. `COc1cc2c(cc1OC)CN(C(=O)/C=C/c1cccs1)CC2`: the “hERG current change (%, negative = inhibition) at 10uM” value was -3.58%.
